# According to the supplement of paper PMC8728848:
# The list shows a part of the results.
# B1: AFCNVH (Aspergillus fumigatus) (protein)
# chain: MSLRGFHTTCDTIVLKDKHILSSRCKRPDGTYSFSEIDLNDCLGNNNGKFVWGGESFVDSASQVNLALEGGEGRPMLHAQLNDWHGSVQSASVNLGECIQNEAGGLEYMHC
# Columns and labels:
# Test in all cases: glycan array binding signal (z-score within array); higher = stronger binding
# Details in all cases: glycan notation: IUPAC condensed, linker removed
# Gal(a1-6)Glc = molecular target: Gal(a1-6)Glc
# In short: (§1)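 Glycan array data came from 3228 arrays in the Consortium for Functional Glycomics database, and only arrays with an available protein sequence were kept. Glycan names were put into IUPAC-condensed notation, and columns mapping to the same glycan were averaged. The binding signal is a within-array Z-score, averaged across arrays of one protein sequence run at different concentrations or buffers and across linkers. A negative Z-score can be read as non-binding.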
# Gal(b1-2)Gal = molecular target: Gal(b1-2)Gal
# In short: as §1
# Gal(b1-3)Gal = molecular target: Gal(b1-3)Gal
# In short: as §1
# Gal(b1-3)Gal(b1-4)GlcNAc = molecular target: Gal(b1-3)Gal(b1-4)GlcNAc
# In short: as §1
# Gal(b1-3)GalNAc = molecular target: Gal(b1-3)GalNAc
# In short: as §1
# [1] = molecular target: Gal(b1-3)GalNAc(a1-3)[Fuc(a1-2)]Gal(b1-4)Glc
# In short: as §1
# [2] = molecular target: Gal(b1-3)GalNAc(a1-3)[Fuc(a1-2)]Gal(b1-4)GlcNAc
# In short: as §1
# Gal(b1-3)GalNAc(b1-3)Gal = molecular target: Gal(b1-3)GalNAc(b1-3)Gal
# In short: as §1
# [3] = molecular target: Gal(b1-3)GalNAc(b1-3)Gal(a1-4)Gal(b1-4)Glc
# In short: as §1
# [4] = molecular target: Gal(b1-3)GalNAc(b1-4)Gal(b1-4)Glc
# In short: as §1
# [5] = molecular target: Gal(b1-3)GalNAc(b1-4)[Neu5Ac(a2-3)]Gal(b1-4)Glc
# In short: as §1
# Gal(b1-3)GlcNAc = molecular target: Gal(b1-3)GlcNAc
# In short: as §1
# [6] = molecular target: Gal(b1-3)GlcNAc(a1-3)Gal(b1-4)GlcNAc
# In short: as §1
# [7] = molecular target: Gal(b1-3)GlcNAc(a1-6)Gal(b1-4)GlcNAc
# In short: as §1
# Gal(b1-3)GlcNAc(b1-2)Man = molecular target: Gal(b1-3)GlcNAc(b1-2)Man
# In short: as §1
# [8] = molecular target: Gal(b1-3)GlcNAc(b1-2)Man(a1-3)[Gal(b1-3)GlcNAc(b1-2)Man(a1-6)]Man(b1-4)GlcNAc(b1-4)GlcNAc
# In short: as §1
# [9] = molecular target: Gal(b1-3)GlcNAc(b1-2)Man(a1-3)[Gal(b1-3)GlcNAc(b1-2)Man(a1-6)]Man(b1-4)GlcNAc(b1-4)[Fuc(a1-6)]GlcNAc
# In short: as §1
# [10] = molecular target: Gal(b1-3)GlcNAc(b1-2)Man(a1-3)[GlcNAc(b1-4)][Gal(b1-3)GlcNAc(b1-2)Man(a1-6)]Man(b1-4)GlcNAc(b1-4)GlcNAc
# In short: as §1
# [11] = molecular target: Gal(b1-3)GlcNAc(b1-2)[Gal(b1-3)GlcNAc(b1-6)]Man(a1-6)[Gal(b1-3)GlcNAc(b1-2)Man(a1-3)]Man(b1-4)GlcNAc(b1-4)GlcNAc
# In short: as §1
# [12] = molecular target: Gal(b1-3)GlcNAc(b1-3)Gal(b1-3)GlcNAc
# In short: as §1
# [13] = molecular target: Gal(b1-3)GlcNAc(b1-3)Gal(b1-4)Glc
# In short: as §1
# [14] = molecular target: Gal(b1-3)GlcNAc(b1-3)Gal(b1-4)GlcNAc
# In short: as §1
# [15] = molecular target: Gal(b1-3)GlcNAc(b1-3)Gal(b1-4)GlcNAc(b1-2)Man(a1-3)[Gal(b1-3)GlcNAc(b1-3)Gal(b1-4)GlcNAc(b1-2)Man(a1-6)]Man(b1-4)GlcNAc(b1-4)GlcNAc
# In short: as §1
# [16] = molecular target: Gal(b1-3)GlcNAc(b1-3)Gal(b1-4)GlcNAc(b1-2)[Gal(b1-3)GlcNAc(b1-3)Gal(b1-4)GlcNAc(b1-6)]Man(a1-6)[Gal(b1-3)GlcNAc(b1-3)Gal(b1-4)GlcNAc(b1-2)Man(a1-3)]Man(b1-4)GlcNAc(b1-4)[Fuc(a1-6)]GlcNAc
# In short: as §1
# [17] = molecular target: Gal(b1-3)GlcNAc(b1-3)Gal(b1-4)GlcNAc(b1-3)Gal(b1-4)GlcNAc(b1-2)[Gal(b1-3)GlcNAc(b1-3)Gal(b1-4)GlcNAc(b1-3)Gal(b1-4)GlcNAc(b1-6)]Man(a1-6)[Gal(b1-3)GlcNAc(b1-3)Gal(b1-4)GlcNAc(b1-3)Gal(b1-4)GlcNAc(b1-2)Man(a1-3)]Man(b1-4)GlcNAc(b1-4)[Fuc(a1-6)]GlcNAc
# In short: as §1
# [18] = molecular target: Gal(b1-3)GlcNAc(b1-3)Gal(b1-4)GlcNAc(b1-6)[Gal(b1-3)GlcNAc(b1-3)]Gal(b1-4)Glc
# In short: as §1
# [19] = molecular target: Gal(b1-3)GlcNAc(b1-3)Gal(b1-4)[Fuc(a1-3)]GlcNAc
# In short: as §1
# [20] = molecular target: Gal(b1-3)GlcNAc(b1-3)Gal(b1-4)[Fuc(a1-3)]GlcNAc(b1-6)[Gal(b1-3)GlcNAc(b1-3)]Gal(b1-4)Glc
# In short: as §1
# [21] = molecular target: Gal(b1-3)GlcNAc(b1-3)GalNAc
# In short: as §1
# [22] = molecular target: Gal(b1-3)GlcNAc(b1-6)Gal(b1-4)GlcNAc
# In short: as §1
# [23] = molecular target: Gal(b1-3)GlcNAc(b1-6)GalNAc
# In short: as §1
# [24] = molecular target: Gal(b1-3)GlcNAc(b1-6)[Gal(b1-3)]GalNAc
# In short: as §1
# Gal(b1-3)GlcNAc6S = molecular target: Gal(b1-3)GlcNAc6S
# In short: as §1
# [25] = molecular target: Gal(b1-3)[Fuc(a1-4)]GlcNAc
# In short: as §1
# [26] = molecular target: Gal(b1-3)[Fuc(a1-4)]GlcNAc(b1-2)Man
# In short: as §1
# [27] = molecular target: Gal(b1-3)[Fuc(a1-4)]GlcNAc(b1-2)Man(a1-3)[Gal(b1-3)[Fuc(a1-4)]GlcNAc(b1-2)Man(a1-6)]Man(b1-4)GlcNAc(b1-4)[Fuc(a1-6)]GlcNAc
# In short: as §1
# [28] = molecular target: Gal(b1-3)[Fuc(a1-4)]GlcNAc(b1-3)Gal(b1-3)[Fuc(a1-4)]GlcNAc
# In short: as §1
# [29] = molecular target: Gal(b1-3)[Fuc(a1-4)]GlcNAc(b1-3)Gal(b1-4)[Fuc(a1-3)]GlcNAc
# In short: as §1
# [30] = molecular target: Gal(b1-3)[Fuc(a1-4)]GlcNAc(b1-6)GalNAc
# In short: as §1
# [31] = molecular target: Gal(b1-3)[GlcNAc(b1-6)]GalNAc
# In short: as §1
# [32] = molecular target: Gal(b1-3)[Neu5Ac(a2-6)]GalNAc
# In short: as §1
# [33] = molecular target: Gal(b1-3)[Neu5Ac(a2-6)]GlcNAc(b1-4)Gal(b1-4)Glc
# In short: as §1
# [34] = molecular target: Gal(b1-3)[Neu5Ac(b2-6)]GalNAc
# In short: as §1
# Gal(b1-4)Gal = molecular target: Gal(b1-4)Gal
# In short: as §1
# [35] = molecular target: Gal(b1-4)GalNAc(a1-3)[Fuc(a1-2)]Gal(b1-4)GlcNAc
# In short: as §1
binder,measurement,setting,value
B1,glycan array binding signal (z-score),Gal(a1-6)Glc,-0.553
same,glycan array binding signal (z-score),Gal(b1-2)Gal,-0.413
same,glycan array binding signal (z-score),Gal(b1-3)Gal,-0.397
same,glycan array binding signal (z-score),Gal(b1-3)Gal(b1-4)GlcNAc,-1.56
same,glycan array binding signal (z-score),Gal(b1-3)GalNAc,-0.335
same,glycan array binding signal (z-score),[1],-0.344
same,glycan array binding signal (z-score),[2],0.111
same,glycan array binding signal (z-score),Gal(b1-3)GalNAc(b1-3)Gal,-0.352
same,glycan array binding signal (z-score),[3],-0.212
same,glycan array binding signal (z-score),[4],-0.3
same,glycan array binding signal (z-score),[5],-0.311
same,glycan array binding signal (z-score),Gal(b1-3)GlcNAc,-0.372
same,glycan array binding signal (z-score),[6],-0.015
same,glycan array binding signal (z-score),[7],-0.332
same,glycan array binding signal (z-score),Gal(b1-3)GlcNAc(b1-2)Man,-0.247
same,glycan array binding signal (z-score),[8],-0.17
same,glycan array binding signal (z-score),[9],-0.33
same,glycan array binding signal (z-score),[10],2.36
same,glycan array binding signal (z-score),[11],-0.413
same,glycan array binding signal (z-score),[12],-0.453
same,glycan array binding signal (z-score),[13],-0.449
same,glycan array binding signal (z-score),[14],-0.612
same,glycan array binding signal (z-score),[15],-0.427
same,glycan array binding signal (z-score),[16],0.48
same,glycan array binding signal (z-score),[17],0.093
same,glycan array binding signal (z-score),[18],-0.193
same,glycan array binding signal (z-score),[19],-0.272
same,glycan array binding signal (z-score),[20],-0.457
same,glycan array binding signal (z-score),[21],-0.414
same,glycan array binding signal (z-score),[22],-0.391
same,glycan array binding signal (z-score),[23],-0.391
same,glycan array binding signal (z-score),[24],-0.007
same,glycan array binding signal (z-score),Gal(b1-3)GlcNAc6S,-0.148
same,glycan array binding signal (z-score),[25],-0.103
same,glycan array binding signal (z-score),[26],-0.254
same,glycan array binding signal (z-score),[27],0.074
same,glycan array binding signal (z-score),[28],-0.116
same,glycan array binding signal (z-score),[29],-0.381
same,glycan array binding signal (z-score),[30],-0.427
same,glycan array binding signal (z-score),[31],0.21
same,glycan array binding signal (z-score),[32],-0.504
same,glycan array binding signal (z-score),[33],-0.502
same,glycan array binding signal (z-score),[34],-0.474
same,glycan array binding signal (z-score),Gal(b1-4)Gal,-0.384
same,glycan array binding signal (z-score),[35],-0.059
